Assay results taken from article PMC4336329 (PLoS ONE, 2015).
Out of some 310,000 compounds screened, about 2,200 (0.71%) showed an effect of 50% or more. Effects have a minus sign here. This is one part of the list.

Each molecule was assayed against human ether-à-go-go-related gene (hERG) potassium channel (human, UniProt Q12809) (assay: primary screen, population patch clamp on CHO cells stably expressing hERG).
human ether-à-go-go-related gene (hERG) potassium channel, sequence (Q12809 whole entry, looked up): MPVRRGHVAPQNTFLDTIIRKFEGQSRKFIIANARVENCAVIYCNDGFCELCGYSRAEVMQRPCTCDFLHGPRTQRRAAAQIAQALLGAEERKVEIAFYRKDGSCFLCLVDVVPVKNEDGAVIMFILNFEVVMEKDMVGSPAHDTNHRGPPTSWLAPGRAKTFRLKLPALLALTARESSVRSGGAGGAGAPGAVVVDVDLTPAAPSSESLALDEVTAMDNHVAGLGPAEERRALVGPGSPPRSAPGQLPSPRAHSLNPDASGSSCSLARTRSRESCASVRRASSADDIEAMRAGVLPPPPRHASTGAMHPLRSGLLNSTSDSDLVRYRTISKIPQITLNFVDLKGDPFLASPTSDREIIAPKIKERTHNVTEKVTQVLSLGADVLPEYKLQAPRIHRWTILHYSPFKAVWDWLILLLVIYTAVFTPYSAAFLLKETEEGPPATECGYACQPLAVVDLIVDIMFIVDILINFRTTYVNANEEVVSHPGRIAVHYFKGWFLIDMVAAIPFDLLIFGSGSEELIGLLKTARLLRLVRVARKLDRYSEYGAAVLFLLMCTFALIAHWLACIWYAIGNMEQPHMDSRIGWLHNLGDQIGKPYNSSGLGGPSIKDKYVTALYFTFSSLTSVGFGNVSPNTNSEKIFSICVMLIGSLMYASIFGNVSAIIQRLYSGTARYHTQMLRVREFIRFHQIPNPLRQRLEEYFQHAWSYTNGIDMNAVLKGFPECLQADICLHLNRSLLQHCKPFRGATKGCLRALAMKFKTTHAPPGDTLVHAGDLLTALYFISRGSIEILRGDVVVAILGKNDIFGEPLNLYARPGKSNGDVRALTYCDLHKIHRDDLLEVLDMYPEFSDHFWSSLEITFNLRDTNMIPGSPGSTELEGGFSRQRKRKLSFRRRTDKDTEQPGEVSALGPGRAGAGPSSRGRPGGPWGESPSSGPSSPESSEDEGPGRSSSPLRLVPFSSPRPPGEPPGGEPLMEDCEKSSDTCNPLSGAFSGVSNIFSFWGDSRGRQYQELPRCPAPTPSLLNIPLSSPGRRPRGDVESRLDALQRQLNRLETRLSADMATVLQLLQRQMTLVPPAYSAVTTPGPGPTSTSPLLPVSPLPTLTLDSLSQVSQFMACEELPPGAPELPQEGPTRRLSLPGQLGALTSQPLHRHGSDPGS

Row | Compound | hERG current change (%, negative = inhibition) at 1uM [%]
1 | O=[N+]([O-])c1cc(F)c(N2CCCC2)cc1N1CCNCC1 | 0.622
2 | CCCN(Cc1ccccc1)C(=S)NC(=O)c1ccccc1[N+](=O)[O-] | 13
3 | O=C(Nc1cc2c(oc1=O)CCCC2=O)c1ccc(Cl)cc1 | 0.979
4 | CC(C)(C)OC(=O)N1CC=C2C(C#N)=C(N)C(C#N)(C#N)C(c3cccs3)C2C1 (centres unmarked) | 13.4
5 | O=C(Nc1ccccc1C(=O)N1CCN(Cc2ccccc2)CC1)c1ccccn1 | 5.23
6 | O=C(COc1ccccc1[N+](=O)[O-])N1CCN(c2ccccn2)CC1 | 12.5
7 | Cc1cc2nc3c(nc2cc1C)C1(C(=O)O)CCC3(C)C1(C)C (centres unmarked) | 2.9
8 | Cc1ccc(S(=O)(=O)N2CCOCC2)cc1C(=O)Nc1c(C)n(C)n(-c2ccccc2)c1=O | 6.42
9 | CCc1ccc(C2=NN(C(=O)CCC(=O)O)C(c3cccs3)C2)cc1 (centres unmarked) | 16.5
10 | Cl.O=C(Nc1ncc([N+](=O)[O-])s1)c1cccs1 | 16.1
11 | CC(=O)Oc1cccc(C(=O)Nc2c[nH]c(=O)[nH]c2=O)c1 | 13.8
12 | Cc1ccccc1-c1cccc(CN2CCN(C)C(CCO)C2)c1 (centres unmarked) | 14.4
13 | CCc1nnc(NC(=O)CSc2nccn2-c2cccc(C)c2)s1 | 12.3
14 | COc1ccc(S(=O)(=O)N2CCC(C(=O)Nc3cc(Cl)ccc3N3CCOCC3)CC2)cc1OC | 11.9
15 | O=C1/C(=C\c2ccc3c(c2)OCO3)CCC/C1=C/c1ccc2c(c1)OCO2 | 8.52
16 | COC(=O)c1cccc(Cn2nc(C)c([N+](=O)[O-])c2C)c1 | 4.85
17 | Cc1cc([N+](=O)[O-])cc2c1NC(=O)C2(O)N1CCCC(C)C1 (centres unmarked) | 10.9
18 | Cc1cccc(NS(=O)(=O)c2coc(C(N)=O)c2)c1C | 7.84
19 | CC(=O)Nc1ccc(-n2nnnc2SCC(=O)NC2CCCC2)cc1 | 9.86
20 | C/C(=N\N1CCN(c2ccc(Cl)cc2)CC1)c1cccc([N+](=O)[O-])c1 | -2.33
21 | CS(=O)(=O)Nc1cccc(C2=NN(S(=O)(=O)c3ccccc3)C(c3cccs3)C2)c1 (centres unmarked) | 7.1
22 | CN(C(=O)COC(=O)COc1ccccc1F)C1CCS(=O)(=O)C1 (centres unmarked) | 11.9
23 | CCCN(C(=O)COC(=O)c1cc(CC)c(C)s1)c1c(N)n(Cc2ccccc2)c(=O)[nH]c1=O | 15
